Measurements reported in PMC4336329 (PLoS ONE, 2015).
About 14,000 (4.5%) of roughly 310,000 compounds showed an effect of 50% or more. Effects have a minus sign here. This is one part of the list.

Biological target: human ether-à-go-go-related gene (hERG) potassium channel (human, UniProt Q12809)
Experiment: primary screen, population patch clamp on CHO cells stably expressing hERG
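Note: peak tail current of the secondary pulse compared with the same well before compound.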

Sequence of human ether-à-go-go-related gene (hERG) potassium channel (Q12809 whole entry, looked up): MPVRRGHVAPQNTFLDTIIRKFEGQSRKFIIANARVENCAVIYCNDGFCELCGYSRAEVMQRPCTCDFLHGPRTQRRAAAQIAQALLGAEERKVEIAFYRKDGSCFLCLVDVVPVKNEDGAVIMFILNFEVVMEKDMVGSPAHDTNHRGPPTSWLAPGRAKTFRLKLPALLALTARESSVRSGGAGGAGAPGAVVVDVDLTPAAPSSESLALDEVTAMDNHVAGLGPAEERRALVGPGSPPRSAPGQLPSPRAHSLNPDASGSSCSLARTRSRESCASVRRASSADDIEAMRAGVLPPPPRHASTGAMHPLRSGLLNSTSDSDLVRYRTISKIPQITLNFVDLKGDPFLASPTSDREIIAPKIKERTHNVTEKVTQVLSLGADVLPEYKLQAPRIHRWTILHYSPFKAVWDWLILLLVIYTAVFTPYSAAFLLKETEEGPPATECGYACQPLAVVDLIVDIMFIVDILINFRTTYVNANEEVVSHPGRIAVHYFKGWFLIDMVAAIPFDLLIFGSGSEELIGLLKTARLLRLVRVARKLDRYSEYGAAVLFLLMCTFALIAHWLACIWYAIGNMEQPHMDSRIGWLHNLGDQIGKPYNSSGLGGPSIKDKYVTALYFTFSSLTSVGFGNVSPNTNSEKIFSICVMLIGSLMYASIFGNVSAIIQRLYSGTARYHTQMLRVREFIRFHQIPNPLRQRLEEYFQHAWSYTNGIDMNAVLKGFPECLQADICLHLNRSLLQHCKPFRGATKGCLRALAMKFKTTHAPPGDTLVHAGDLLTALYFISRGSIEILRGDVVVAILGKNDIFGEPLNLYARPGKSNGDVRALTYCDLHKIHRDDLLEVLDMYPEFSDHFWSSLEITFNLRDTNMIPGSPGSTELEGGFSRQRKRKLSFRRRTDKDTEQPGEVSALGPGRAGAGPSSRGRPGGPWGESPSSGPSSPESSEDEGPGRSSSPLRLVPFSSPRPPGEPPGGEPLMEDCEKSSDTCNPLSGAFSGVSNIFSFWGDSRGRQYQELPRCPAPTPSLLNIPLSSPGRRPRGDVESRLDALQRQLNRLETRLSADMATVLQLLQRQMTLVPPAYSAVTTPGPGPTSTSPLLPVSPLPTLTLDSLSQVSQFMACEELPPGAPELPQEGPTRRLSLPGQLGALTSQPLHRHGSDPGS

| SMILES | hERG current change (%, negative = inhibition) at 10uM [%] |
| --- | --- |
| CN(C)C(=O)c1ccc(OCC(F)(F)F)nc1 | 12.2 |
| O=C(c1ccc(F)cc1)N1CCC(C(=O)N2CCN(S(=O)(=O)c3cccc(Cl)c3)CC2)CC1 | -44.6 |
| Nc1nc2ccccc2n1CCOc1ccc(Cl)cc1 | -51.1 |
| COc1cccc(OCC(=O)NN=C2c3ccccc3-c3ccccc32)c1 | -5.77 |
| O=c1cc(CSc2ccc(Cl)cc2)nc(-c2ccccc2)[nH]1 | -59.7 |
| CC(CCN1C(Nc2ccccc2)=NC[C@@H]1Cc1ccccc1)c1ccccc1 (some centres unmarked) | -74.8 |
| CCOC(=O)/C(=N\Nc1ncnc2ccccc12)c1ccc(C)cc1 | -39.1 |
| Cc1cc(C)cc(-n2c(SCC(=O)NCc3ccc4c(c3)OCO4)nc3ccccc3c2=O)c1 | 15.9 |
| COc1ccc(NS(=O)(=O)c2ccc(C(=O)N3CCN(Cc4ccccc4)CC3)cc2)cc1 | -17.1 |
| Cc1nnsc1S(=O)c1ccccc1Cl (centres unmarked) | 22.6 |
| CCc1cccc(NC(=O)CCS(=O)(=O)c2cccc3nonc23)c1 | -5.55 |
| CC(C)(C)OC(=O)NC(Cc1ccccc1)C(=O)O (centres unmarked) | -50.5 |
| CCOc1ccccc1-n1c(SCC(N)=O)nnc1-c1cccnc1 | 6.88 |
| CC(C)Oc1ccc(N2CC(C(=O)Nc3ccc(N4CCOCC4)cc3)CC2=O)cc1 (centres unmarked) | 22.6 |
| O=C(NC(=O)c1ccccc1)OCC1CCCN2CCCCC12 (centres unmarked) | -56.7 |
| COc1cc(/C=N/O)cc(Cl)c1OC | 4.03 |
| COCCCNC(=O)C1CCN(S(=O)(=O)c2ccc3nc4c(c(C(=O)O)c3c2)CCCCC4)CC1 | 4.15 |
| CCN(Cc1ccccc1)C(=O)CCc1nc(-c2ccc(C)cc2)no1 | -12.1 |
| COc1cccc(-c2nn(-c3ccccc3)cc2C(=O)n2nnc3ccccc32)c1 | -3.31 |
| CN1C(=O)CSc2ccc(NC(=O)NCc3ccccc3)cc21 | 0.201 |
| C=CCOc1c(CNc2ccc(S(N)(=O)=O)cc2)cccc1OC | 2.97 |
| O=S(=O)(Nc1nnc(C2CC2)s1)c1ccccc1 | -8.13 |
| Cc1ccc(N(C)S(=O)(=O)c2cccc(C(=O)NCC(c3ccco3)N3CCCC3)c2)cc1 (centres unmarked) | -62.5 |
| O=[N+]([O-])c1ccc(-c2nn(-c3ccccc3)cc2/C=N/n2c(-c3ccncc3)n[nH]c2=S)cc1 | 19.4 |
| CN1CCN(S(=O)(=O)c2ccc(NC(=O)c3ccccc3F)cc2)CC1 | 4.77 |
| COc1ccc2cc(C(=O)N/N=C/c3cc(OC)c(OC)c(OC)c3)[nH]c2c1 | 11.5 |
| CCOC(=O)N1CCN(CC(=O)Nc2ccc(OC)cc2)CC1 | -15.2 |

| SMILES | hERG current change (%, negative = inhibition) at 10uM [%] |
| --- | --- |
| O=C(Nc1cccc(Oc2c(F)c(F)c(F)c(F)c2F)c1)N1C[C@@H]2C[C@@H](C1)c1cccc(=O)n1C2 | -44.8 |
| Cc1ccc(N2C(=O)NC(=O)/C(=C\c3cc(C)n(-c4sc5c(c4C#N)CCCC5)c3C)C2=O)cc1 | -4.39 |
| COC(=O)c1ccc(NC(=O)Nc2ccc(F)cc2)cc1 | -6.29 |
| CS(=O)(=O)c1ccc(C(=O)OCC(=O)Nc2cccc(S(=O)(=O)N3CCCC3)c2)cc1 | -26.1 |
| Cc1cc(/C=C2/SC(=S)N(c3cccc(C(F)(F)F)c3)C2=O)c(C)n1-c1cccnc1 | 7.45 |
| CCn1cc(C2CC(=O)NC2=O)c2ccccc21 (centres unmarked) | 9.51 |
| O=C(COC(=O)c1ccccc1NC(=O)c1ccccc1)c1ccc([N+](=O)[O-])cc1 | -5.91 |
| COc1ccc(NC(=S)N2CCN(S(C)(=O)=O)CC2)cc1 | 9.62 |
| Oc1c(C(c2ccc(F)cc2)N2CCc3ccccc3C2)sc2ncnn12 (centres unmarked) | -2.64 |
| CCOC(=O)c1ncn2c1[C@@H]1CCNC1C(=O)c1cc(OC)ccc1-2 (some centres unmarked) | -68.4 |
| COc1ccc(-c2cc(C(F)F)n3ncc(C(=O)N4CCCCC4)c3n2)cc1 | -26.4 |
| Cc1nc(N2CCN(S(=O)(=O)c3ccccc3C#N)CC2)c2c(-c3cccs3)csc2n1 | -3.58 |
| CCCCCCCNC(=O)C1CC(=O)N(C)C(=Nc2ccc(OC)cc2)S1 (centres unmarked) | 4.5 |
| O=C(CSc1nc2ccc(NC(=O)c3ccccc3C(=O)O)cc2s1)Nc1c(Cl)cccc1Cl | 16.8 |
| Cc1ccc(CN2CCN(C(=O)c3cccc4ccccc34)CC2)cc1.O=C(O)C(=O)O | 2.56 |
| CCOc1cc(/C=N/NC(=O)c2ccc(CN3CCOCC3)cc2)ccc1OC | -19.1 |
| COc1cccc(NC(=O)c2ccccc2NS(C)(=O)=O)c1 | -13.8 |
| O=C(Cn1nc(-c2ccccc2)c2ccccc2c1=O)Nc1cccc(O)c1 | 15.9 |
| Cc1nc2ncnn2c(C)c1C/C=C/c1ccccc1 | -15.3 |
| O=C(CN1C(=O)NC2(CCCCC2)C1=O)Nc1nc2c(F)cc(F)cc2s1 | 5.66 |
| COc1ccc(C(=O)NC(=S)Nc2cc3oc4ccccc4c3cc2OC)cc1 | 3.87 |
| CN(C)C(=O)Oc1cc(OC(=O)N(C)C)cc(C(O)CNC(C)(C)C)c1 (centres unmarked) | 14.8 |
| Cn1c(-c2sccc2OCc2ccc(Cl)cc2Cl)n[nH]c1=S | -12.8 |
| Cc1ccc(C(=O)NCN2CCN(c3ccc(F)cc3)CC2)cc1 | -28.9 |
| N=c1c(C(=O)NC2CCCCC2)cc2c(=O)n3ccccc3nc2n1Cc1ccc(F)cc1 | -77 |
| CCN(CC)S(=O)(=O)c1cccc(N=Nc2c(O)c3ccccc3oc2=O)c1 | 1.63 |
